Results reported in article PMC4336329 (PLoS ONE, 2015).
The whole screen tested about 310,000 compounds, of which about 2,200 (0.71%) showed an effect of 50% or more. Effects have a minus sign here. The list shows a part of the results.

Target: human ether-à-go-go-related gene (hERG) potassium channel (human, UniProt Q12809)
Test: primary screen, population patch clamp on CHO cells stably expressing hERG

Chain of human ether-à-go-go-related gene (hERG) potassium channel (Q12809 whole entry, looked up): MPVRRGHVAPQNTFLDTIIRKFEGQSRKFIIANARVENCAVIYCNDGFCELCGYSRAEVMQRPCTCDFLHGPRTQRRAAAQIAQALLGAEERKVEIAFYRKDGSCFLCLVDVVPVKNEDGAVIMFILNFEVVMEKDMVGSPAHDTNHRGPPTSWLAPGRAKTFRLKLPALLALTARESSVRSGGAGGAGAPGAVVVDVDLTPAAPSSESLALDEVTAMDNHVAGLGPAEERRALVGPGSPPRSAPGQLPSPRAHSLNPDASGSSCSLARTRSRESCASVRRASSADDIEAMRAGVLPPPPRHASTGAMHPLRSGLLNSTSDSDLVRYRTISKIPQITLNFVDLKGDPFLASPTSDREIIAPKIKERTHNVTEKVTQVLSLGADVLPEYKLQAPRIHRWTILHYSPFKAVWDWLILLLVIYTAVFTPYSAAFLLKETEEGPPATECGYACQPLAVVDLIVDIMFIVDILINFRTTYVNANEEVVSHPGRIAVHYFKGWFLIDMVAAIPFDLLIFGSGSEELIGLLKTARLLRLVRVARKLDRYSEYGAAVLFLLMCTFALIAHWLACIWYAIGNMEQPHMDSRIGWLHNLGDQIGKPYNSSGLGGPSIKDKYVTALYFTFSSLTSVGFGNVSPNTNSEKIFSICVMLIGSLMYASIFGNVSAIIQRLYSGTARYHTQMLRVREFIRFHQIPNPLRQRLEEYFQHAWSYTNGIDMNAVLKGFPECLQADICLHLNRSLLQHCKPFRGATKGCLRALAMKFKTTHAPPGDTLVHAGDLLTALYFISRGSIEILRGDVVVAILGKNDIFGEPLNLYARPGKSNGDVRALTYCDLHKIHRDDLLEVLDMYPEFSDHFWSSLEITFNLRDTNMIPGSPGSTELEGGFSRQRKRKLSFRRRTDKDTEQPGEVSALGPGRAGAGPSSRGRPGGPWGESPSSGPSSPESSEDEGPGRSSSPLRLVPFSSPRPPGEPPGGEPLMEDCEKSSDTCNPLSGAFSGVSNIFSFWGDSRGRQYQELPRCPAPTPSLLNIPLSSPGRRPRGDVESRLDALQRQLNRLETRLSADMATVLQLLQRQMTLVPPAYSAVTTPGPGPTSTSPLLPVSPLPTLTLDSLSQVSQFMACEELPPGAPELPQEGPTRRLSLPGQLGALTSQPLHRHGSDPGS

Structure (SMILES) | hERG current change (%, negative = inhibition) at 1uM
O=C(Nc1cccc2ncccc12)c1ccc2c(c1)OCCO2 | 7.61%
CCOC(=O)c1c(NC(=O)c2ccnn2C)sc(C)c1C | 18.3%
COc1ccc(OC)c(CCNC(=O)c2ccc(CS(=O)Cc3ccc(Cl)cc3)o2)c1 (stereo not shown) | -9.85%
Cc1nn(C(=O)c2cccnc2)c(C)c1C | 2.6%
CC(=O)c1ccc(N(C(=O)c2csnn2)C(C(=O)NC(C)(C)C)c2cccs2)cc1 (stereo not shown) | -15%
COc1cc(NS(C)(=O)=O)c(OC)cc1NC(=O)c1ccccc1 | 1.48%
Cc1ccc(SC2CC(=O)N(c3ccc4c(c3)OCCO4)C2=O)cc1 (stereo not shown) | 17.1%
Cc1cc(NC(=O)CN(C)CC(=O)Nc2ccc(F)c(F)c2F)no1 | 0.344%
Cn1cnnc1SCc1nc(N)nc(Nc2ccccc2)n1 | 13.7%
COC(=O)c1cc(OC)c(OC)cc1NC(=O)c1ccc(OC)c(OC)c1 | 5.71%
CN(C)S(=O)(=O)N1CCN(Cc2ccccc2)CC1 | -2.04%
COc1ccc(NC(=O)c2cccc(Oc3ccccc3)c2)cn1 | 20%
CCCc1nnc(SCC(=O)N2CCCCC2C)n1CCCOC (stereo not shown) | 2.44%
CCC1Nc2ncnc(N3CCOCC3)c2N(Cc2ccccc2)C1=O.O=C(O)C(F)(F)F (stereo not shown) | 13.8%
Cc1cc(C)cc(NC(=O)CSc2nnc(-c3ccccc3)n2N)c1 | 8.93%
COc1ccc(NC(=O)COC(=O)CCNS(=O)(=O)c2ccccc2)cc1OC | 4.81%
CCN1CCN(c2nc(N)c([N+](=O)[O-])c(Nc3ccc(C)cc3)n2)CC1 | -7.72%
COC(=O)C1=C(Nc2ccccc2NC(=O)CCCC(=O)O)CSC1 | 9.32%
CCOc1ccccc1C(=O)NCCCCNC(=O)c1ccccc1OCC | 0.0163%
CCOc1ccc(CCNC(=O)c2[nH]c(C)c(C(C)=O)c2CC)cc1OCC | 8.48%
CN(C)C(=O)c1ccc(NC(=O)CC2SC(N3CCCC3)=NC2=O)cc1 (stereo not shown) | 17.8%
COc1ccc(-n2c(=O)c3c4c(sc3n(Cc3cccc(F)c3)c2=O)CN(C(C)=O)CC4)c(OC)c1 | 1.25%
CC(OC(=O)C1CCC1)C(=O)Nc1cc(Cl)cc(Cl)c1 (stereo not shown) | 8.36%
C=CCn1c(=O)c(C(=O)NCCN(CC)CC)c(O)c2ccccc21.Cl | 0.578%
Cc1ccc(-n2nc(C(=O)O)c(O)cc2=O)cc1 | 12.3%

Structure (SMILES) | hERG current change (%, negative = inhibition) at 1uM
O=C(Oc1cc(=O)n2ccccc2n1)c1ccccc1 | 15.4%
CCN(CC)S(=O)(=O)c1ccc(OC)c(NC(=O)c2cc(=O)[nH]c3ccccc23)c1 | 9.13%
COCCn1c(-c2ccco2)nc2nc3ccccc3nc21 | 7.49%
Cc1cccn2cc(-c3cccc(S(=O)(=O)N4CCOCC4)c3)nc12 | 3.06%
COc1ccc(C(=O)c2cnc[nH]2)cc1OC | 6.7%
CCOc1ccc(C(C)=O)cc1COC(=O)C(C)N=C1NS(=O)(=O)c2ccccc21 (stereo not shown) | 12.9%
Cc1ccc(-n2c(=O)c3sccc3n(CC(=O)NCC3CCCO3)c2=O)cc1F (stereo not shown) | 1.95%
O=C(O)/C=C/c1cn(-c2ccccc2)nc1-c1ccccc1 | 7.32%
Cc1nnc(SCC(=O)Nc2sccc2C#N)s1 | 7.34%
CC(C)(Oc1ccc(Cl)cc1)C(=O)Nc1ccc(S(=O)(=O)Nc2ncccn2)cc1 | 2.98%
Cn1c(N)c(C(=O)COC(=O)CCCc2nc3ccccc3s2)c(=O)n(C)c1=O | 35.9%
COc1cccc(NC(=O)NCCCCc2ccccc2)c1 | -0.169%
CC1(C)Cc2nc(-c3ccccc3)nc(SCC(=O)N3CCOCC3)c2CO1 | 8.06%
CC(C)(C)c1nnc(NS(=O)(=O)c2cc(Cl)ccc2Cl)s1 | 6.89%
COCCN1C(=O)c2ccccc2C(C(=O)NCCCN2CCCC2)C1c1c[nH]c2ccccc12 (stereo not shown) | 2.87%
CCOc1cc(-c2ccc(N)c(OCC)c2)ccc1N | -0.223%
C=C(Br)Cn1c(CCCC)nc2ccccc21 | -6.89%
O=C(COC(=O)c1ccc([N+](=O)[O-])s1)NCc1ccc(F)cc1 | 23.6%
NC(Cc1c[nH]c2ccccc12)C(=O)NCc1ccccc1 (stereo not shown) | 17.6%
Cc1cc2cc(C=C(C#N)C#N)c(Cl)nc2cc1C | 3.01%
O=C(NCCCn1ccnc1)C(=O)NCC(c1ccco1)N1CCN(c2ccccc2)CC1 (stereo not shown) | 9.14%
Cc1cc2c(cc1C)NC(c1ccccn1)C1=C(CC(C)(C)CC1=O)N2 (stereo not shown) | 6.15%
CCC(=O)Nc1ccc(OCc2nc3ccccc3s2)cc1 | 11.6%
Nc1ccc(Nc2ccccc2)c(Cl)c1 | 8.89%
COCCN(C(=O)C(F)(F)F)C(C(=O)NC1CCCCC1)c1ccco1 (stereo not shown) | 9.42%

Structure (SMILES) | hERG current change (%, negative = inhibition) at 1uM
O=S(=O)(c1cccs1)N1CCN(c2ccc(Cl)cc2)CC1 | 19.9%
O=C(CSc1nnc(CNC(=O)c2ccccc2F)o1)NCc1ccccc1 | -9.19%
Cc1ccc(/C(O)=C2\C(=O)C(=O)N(C)C2c2ccccc2[N+](=O)[O-])cc1 (stereo not shown) | 13.8%
CC1=NC(C)(C)Cc2ccccc21.O=C(O)c1ccccc1O | 23.5%
O=C(NCCCN1CCCC1=O)c1ccc(Cl)c(NS(=O)(=O)c2ccc(F)cc2)c1 | 5.84%
Cc1ccc(NC(=O)COC(=O)c2cc(=O)c3ccccc3o2)cc1F | 14.7%
CC(=O)c1ccc(NC(=O)CSc2nnc(-c3ccncc3)o2)cc1 | -5.38%
COc1ccc2nc(NC(=O)c3c(C)noc3C)sc2c1 | -4.89%
CCN(CC)CCCn1c(=S)[nH]c2cc(Cl)ccc2c1=O | -41.9%
O=C(Nc1nc(-c2ccccc2)c(-c2ccccc2)s1)c1ccc(S(=O)(=O)N2CCCCC2)cc1 | 4.8%
CC(=O)c1ccc(COC(=O)c2cc3ccccc3oc2=O)cc1 | 6.71%
COc1cc(NC(=O)c2cc(Cl)nnc2Cl)cc(OC)c1OC | -2.82%
COc1ccc(NC2=C(C(C)=O)C(c3ccc(N(C)C)cc3)C(C(C)=O)C(C)(O)C2)cc1 (stereo not shown) | 10.2%
CC(C)OC(=O)Nc1ccc2c(c1)N(C(=O)CCN(C)C)c1ccccc1CC2.Cl | 3.73%
CN(C)/C=C(/C(=O)c1ccc(Cl)cc1Cl)S(=O)(=O)c1ccc(Cl)cc1 | 1.51%
CCCC[n+]1ccc(-c2nc3ccc([N+](=O)[O-])cc3[nH]2)cc1 | -41.3%
COc1ccc(-c2cc(C(=O)N(C)CC(=O)Nc3cccc(F)c3)c3ccccc3n2)cc1 | 10.3%
Cc1ccccc1OCC(=O)NCCCNC(=O)c1ccncc1 | 6.96%
O=c1[nH]c(=S)n(-c2ccc(Cl)cc2)c(O)c1/C=N/N1CCOCC1 | -3.14%
CCOCC(=O)Nc1nc2ccc(S(C)(=O)=O)cc2s1 | 2.73%
CCOC(=O)c1cc(C#N)c(Oc2cccc(C(F)(F)F)c2)nc1-c1ccccc1 | 5.66%
COc1ccc([N+](=O)[O-])cc1NC(=O)CCCOc1ccccc1 | 16.7%
CC1(C(=O)Nc2cccc3ccccc23)CC1(Br)Br (stereo not shown) | 7.75%
CC(NC(=S)NNS(=O)(=O)c1ccc(C(C)(C)C)cc1)c1ccccc1 (stereo not shown) | 4.82%
Cc1cccnc1NC(=O)c1c(O)c2ccccc2n(C)c1=O | 11.5%

Structure (SMILES) | hERG current change (%, negative = inhibition) at 1uM
COc1ccc(C2NC(=O)c3ccccc3O2)cc1OC (stereo not shown) | 8.88%
Cc1ccc(C(=O)Oc2ccccc2N2C(=O)C3C4CCC(C4)C3C2=O)cc1 (stereo not shown) | 11.6%
CCOC(=O)c1ccc(S(=O)(=O)N2CCC(C(=O)NCc3ccccc3OC)CC2)cc1 | 13.6%
Cc1cc(=O)n2nc(N3CCCC(C(=O)NCc4cccc(Br)c4)C3)sc2n1 (stereo not shown) | 0.13%
COc1ccc(OCCC(=O)N2CCCCC2)cc1 | 5.7%
CN1CCN(C(=O)C2CCC(CNS(=O)(=O)c3cccc4cccnc34)CC2)CC1 (stereo not shown) | 10.5%
CCC(Oc1ccccc1)C(=O)NC1CCSC1=O (stereo not shown) | 4.24%
O=C(O)CCCC(=O)N1CCN(c2cccc(Cl)c2)CC1 | 4.93%
N#Cc1cc2cc3c(cc2nc1SCC(=O)N1CCOCC1)OCO3 | 13.2%
CCn1c(Cc2cccs2)nnc1SCC(=O)Nc1ccc(OC)c(OC)c1 | 15.4%
Cc1ccc(-c2cc(C(=O)N/N=C/C=C/c3ccccc3)n[nH]2)o1 | -2.86%
C=CCOc1ccc(CNn2c(C)n[nH]c2=S)cc1OC | 18.2%
CC1CC(=O)C=C(O)C1C(=O)OC(C)(C)C (stereo not shown) | 10.5%
Cc1sc(NC(=O)Cn2[nH]c(=O)c3ccccc3c2=O)nc1-c1ccccc1 | 14.2%
COC(=O)c1cc(NC(=O)CN2C(=O)C(=O)N(C3CCCC3)C2=O)cc(C(=O)OC)c1 | 8.68%
Cc1ccc(O)c(CN2CCN(c3ccccc3)CC2)c1 | -1.79%
COc1ccc(C(CNC(=O)c2cccnc2SC)N2CCOCC2)cc1 (stereo not shown) | -3.94%
O=C(N/N=C/c1c[nH]c2ccccc12)c1ccncc1 | 8.29%
CC(=O)N1c2ccc(S(=O)(=O)N3CCC(C(=O)NCc4ccccc4Cl)CC3)cc2CC1C (stereo not shown) | 12.7%
Cc1ccn2cc(-c3ccc(Br)cc3)nc2c1 | 10.5%
CC(Sc1ncnc2sc(-c3ccccc3)cc12)C(=O)N1CCNC1=O (stereo not shown) | 4.6%
CC(C)CC1=NC(C(F)(F)F)(C(F)(F)F)c2c(n(CC(C)C)c(=O)[nH]c2=O)N1 | 18.2%
CCOC(=O)c1c2c3c(cccc3[nH]c1=O)C(=O)c1ccccc1-2 | 7.81%
Nc1nc(-c2cccc(Br)c2)cs1 | 8.42%
O=C(c1cccc([N+](=O)[O-])c1)n1nc(-c2ccccc2)nc1NCc1ccccc1 | 9.73%
